# Results: the supplement of paper PMC8728848
# This is one part of the list.
# B1: Gal 3 (Homo sapiens), P17931 (protein)
# chain: MADNFSLHDALSGSGNPNPQGWPGAWGNQPAGAGGYPGASYPGAYPGQAPPGAYPGQAPPGAYHGAPGAYPGAPAPGVYPGPPSGPGAYPSSGQPSAPGAYPATGPYGAPAGPLIVPYNLPLPGGVVPRMLITILGTVKPNANRIQLDFQRGNDVAFHFNPRFNENNRRVIVCNTKLDNNWGREERQSVFPFESGKPFKIQVLVEPDHFKVAVNDAHLLQYNHRVKKLNEISKLGISGDIDLTSASYTMI
# What was measured:
# Assay in all cases: glycan array binding signal (z-score within array); higher = stronger binding
# Conditions in all cases: glycan notation: IUPAC condensed, linker removed; mutation: A146Q
# [1] = biological target: Fuc(a1-2)[GalNAc(a1-3)]Gal(b1-4)GlcNAc(b1-3)Gal(b1-4)GlcNAc
# How it was run: (§1)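 Columns mapping to the same glycan were averaged after glycan names were converted to IUPAC-condensed notation. The data come from 3228 arrays in the Consortium for Functional Glycomics database, limited to those with an available protein sequence. Binding is reported as a within-array Z-score averaged across arrays of one protein sequence and across linkers.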
# [2] = biological target: Fuc(a1-2)[GalNAc(a1-3)]Gal(b1-4)GlcNAc(b1-3)Gal(b1-4)GlcNAc(b1-3)Gal(b1-4)GlcNAc
# How it was run: as §1
# [3] = biological target: Fuc(a1-2)[GalNAc(a1-3)]Gal(b1-4)[Fuc(a1-3)]GlcNAc
# How it was run: as §1
# [4] = biological target: Fuc(a1-2)[GalNAc(a1-4)]Gal(b1-4)GlcNAc
# How it was run: as §1
# [5] = biological target: Fuc(a1-2)[GalNAc(b1-3)]Gal
# How it was run: as §1
# [6] = biological target: Fuc(a1-3)GlcNAc
# How it was run: as §1
# [7] = biological target: Fuc(a1-3)[Gal(b1-4)]Glc6S
# How it was run: as §1
# [8] = biological target: Fuc(a1-3)[Gal(b1-4)]GlcNAc
# How it was run: as §1
# [9] = biological target: Fuc(a1-3)[Gal(b1-4)]GlcNAc(b1-2)Man(a1-3)[Fuc(a1-3)[Gal(b1-4)]GlcNAc(b1-2)Man(a1-6)]Man(b1-4)GlcNAc(b1-4)GlcNAc
# How it was run: as §1
# [10] = biological target: Fuc(a1-3)[Gal(b1-4)]GlcNAc(b1-3)Gal(b1-3)[Fuc(a1-4)]GlcNAc
# How it was run: as §1
# [11] = biological target: Fuc(a1-3)[Gal(b1-4)]GlcNAc(b1-3)GalNAc
# How it was run: as §1
# [12] = biological target: Fuc(a1-3)[Gal(b1-4)]GlcNAc(b1-4)Gal(b1-4)[Fuc(a1-3)]GlcNAc
# How it was run: as §1
# [13] = biological target: Fuc(a1-3)[Gal(b1-4)]GlcNAc(b1-4)Gal(b1-4)[Fuc(a1-3)]GlcNAc(b1-4)Gal(b1-4)[Fuc(a1-3)]GlcNAc
# How it was run: as §1
# [14] = biological target: Fuc(a1-3)[Gal(b1-4)]GlcNAc(b1-6)[Gal(b1-3)GlcNAc(b1-3)]Gal(b1-4)Glc
# How it was run: as §1
# [15] = biological target: Fuc(a1-3)[Gal(b1-4)]GlcNAc6S
# How it was run: as §1
# [16] = biological target: Fuc(a1-3)[Gal3S(b1-4)]GlcNAc
# How it was run: as §1
# [17] = biological target: Fuc(a1-3)[Gal3S(b1-4)]GlcNAc6S
# How it was run: as §1
# [18] = biological target: Fuc(a1-3)[GalNAc(b1-4)]GlcNAc
# How it was run: as §1
# [19] = biological target: Fuc(a1-4)GlcNAc
# How it was run: as §1
# [20] = biological target: Fuc(b1-3)GlcNAc
# How it was run: as §1
# [21] = biological target: Gal(a1-2)Gal
# How it was run: as §1
# [22] = biological target: Gal(a1-3)Gal
# How it was run: as §1
# [23] = biological target: Gal(a1-3)Gal(b1-3)GlcNAc
# How it was run: as §1
# [24] = biological target: Gal(a1-3)Gal(b1-3)GlcNAc(b1-2)Man(a1-3)[Gal(a1-3)Gal(b1-3)GlcNAc(b1-2)Man(a1-6)]Man(b1-4)GlcNAc(b1-4)GlcNAc
# How it was run: as §1
# [25] = biological target: Gal(a1-3)Gal(b1-3)[Fuc(a1-4)]GlcNAc(b1-2)Man(a1-3)[Gal(a1-3)Gal(b1-3)[Fuc(a1-4)]GlcNAc(b1-2)Man(a1-6)]Man(b1-4)GlcNAc(b1-4)GlcNAc
# How it was run: as §1
# [26] = biological target: Gal(a1-3)Gal(b1-4)Glc
# How it was run: as §1
# [27] = biological target: Gal(a1-3)Gal(b1-4)GlcNAc
# How it was run: as §1
# [28] = biological target: Gal(a1-3)Gal(b1-4)GlcNAc(b1-3)GalNAc
# How it was run: as §1
# [29] = biological target: Gal(a1-3)Gal(b1-4)[Fuc(a1-3)]GlcNAc
# How it was run: as §1
# [30] = biological target: Gal(a1-3)Gal(b1-4)[Fuc(a1-3)]GlcNAc(b1-2)Man(a1-3)[Gal(a1-3)Gal(b1-4)[Fuc(a1-3)]GlcNAc(b1-2)Man(a1-6)]Man(b1-4)GlcNAc(b1-4)GlcNAc
# How it was run: as §1
# [31] = biological target: Gal(a1-3)GalNAc
# How it was run: as §1
# [32] = biological target: Gal(a1-3)[Gal(a1-4)]Gal(b1-4)GlcNAc
# How it was run: as §1
# [33] = biological target: Gal(a1-4)Gal(b1-3)GlcNAc(b1-2)Man(a1-3)[Gal(a1-4)Gal(b1-3)GlcNAc(b1-2)Man(a1-6)]Man(b1-4)GlcNAc(b1-4)GlcNAc
# How it was run: as §1
# [34] = biological target: Gal(a1-4)Gal(b1-4)Glc
# How it was run: as §1
# [35] = biological target: Gal(a1-4)Gal(b1-4)GlcNAc
# How it was run: as §1
# [36] = biological target: Gal(a1-4)Gal(b1-4)GlcNAc(b1-2)Man(a1-3)[Gal(a1-4)Gal(b1-4)GlcNAc(b1-2)Man(a1-6)]Man(b1-4)GlcNAc(b1-4)GlcNAc
# How it was run: as §1
# [37] = biological target: Gal(a1-4)Gal(b1-4)GlcNAc(b1-3)Gal(b1-4)Glc
# How it was run: as §1
# [38] = biological target: Gal(a1-4)GlcNAc
# How it was run: as §1
# [39] = biological target: Gal(a1-6)Glc
# How it was run: as §1
# [40] = biological target: Gal(b1-2)Gal
# How it was run: as §1
# [41] = biological target: Gal(b1-3)Gal
# How it was run: as §1
# [42] = biological target: Gal(b1-3)Gal(b1-4)GlcNAc
# How it was run: as §1
# [43] = biological target: Gal(b1-3)Gal(b1-4)GlcNAc(b1-2)Man(a1-3)[Gal(b1-3)Gal(b1-4)GlcNAc(b1-2)Man(a1-6)]Man(b1-4)GlcNAc(b1-4)GlcNAc
# How it was run: as §1
# [44] = biological target: Gal(b1-3)GalNAc
# How it was run: as §1
# [45] = biological target: Gal(b1-3)GalNAc(a1-3)[Fuc(a1-2)]Gal(b1-4)Glc
# How it was run: as §1
binder,measurement,setting,value
B1,glycan array binding signal (z-score),[1],-0.179
same,glycan array binding signal (z-score),[2],0.756
same,glycan array binding signal (z-score),[3],-0.2
same,glycan array binding signal (z-score),[4],-0.192
same,glycan array binding signal (z-score),[5],-0.195
same,glycan array binding signal (z-score),[6],-0.194
same,glycan array binding signal (z-score),[7],-0.169
same,glycan array binding signal (z-score),[8],-0.19
same,glycan array binding signal (z-score),[9],-0.18
same,glycan array binding signal (z-score),[10],-0.201
same,glycan array binding signal (z-score),[11],-0.191
same,glycan array binding signal (z-score),[12],-0.192
same,glycan array binding signal (z-score),[13],-0.203
same,glycan array binding signal (z-score),[14],-0.182
same,glycan array binding signal (z-score),[15],-0.197
same,glycan array binding signal (z-score),[16],-0.188
same,glycan array binding signal (z-score),[17],-0.044
same,glycan array binding signal (z-score),[18],-0.188
same,glycan array binding signal (z-score),[19],-0.12
same,glycan array binding signal (z-score),[20],-0.19
same,glycan array binding signal (z-score),[21],-0.2
same,glycan array binding signal (z-score),[22],-0.198
same,glycan array binding signal (z-score),[23],-0.087
same,glycan array binding signal (z-score),[24],-0.196
same,glycan array binding signal (z-score),[25],-0.188
same,glycan array binding signal (z-score),[26],-0.19
same,glycan array binding signal (z-score),[27],-0.102
same,glycan array binding signal (z-score),[28],0.682
same,glycan array binding signal (z-score),[29],-0.19
same,glycan array binding signal (z-score),[30],-0.078
same,glycan array binding signal (z-score),[31],-0.199
same,glycan array binding signal (z-score),[32],-0.158
same,glycan array binding signal (z-score),[33],-0.197
same,glycan array binding signal (z-score),[34],-0.19
same,glycan array binding signal (z-score),[35],-0.194
same,glycan array binding signal (z-score),[36],-0.204
same,glycan array binding signal (z-score),[37],-0.187
same,glycan array binding signal (z-score),[38],-0.197
same,glycan array binding signal (z-score),[39],-0.188
same,glycan array binding signal (z-score),[40],-0.194
same,glycan array binding signal (z-score),[41],-0.193
same,glycan array binding signal (z-score),[42],-0.201
same,glycan array binding signal (z-score),[43],10.2
same,glycan array binding signal (z-score),[44],-0.185
same,glycan array binding signal (z-score),[45],-0.187
